# From PubChem BioAssay AID463173 (ICCB-Longwood Screening Facility, Harvard Medical School, 2010)
# Among all 52,000 compounds or so, about 1,700 (3.3%) were called active. No stated cut-off is given here; in the data, active means survival mostly below about 52% (no sharp cut-off); inactive means mostly above about 56%. The list shows a part of the results.
# Test system: Wild type
# Test: S. aureus survival, RN4220 and DeltatarO strains – OD600, teichoic acid synthesis inhibitors, primary screen (AID 463173)
# Conditions: S. aureus RN4220 wild type/DeltatarO growth, OD600, 18 h, active compounds read low, screened at 18.75 µg/mL (by protocol)
row,Structure (SMILES),survival
1,COc1ccccc1C(=O)OCc1cc(=O)n2nc(C3CCCCC3)sc2n1,inactive: 99%
2,CCOC(=O)/C=C1\NC2(CCCC2)Cc2cc(OC)c(OC)cc21,inactive: 115%
3,Cc1cccc(NC(=O)CN2C(=O)c3ccccc3Sc3ncccc32)c1C,inactive: 90%
4,CCn1c(NCc2ccc(OC)c(OC)c2)nc2ccccc21,inactive: 127%
5,O=C(CCCc1ccccc1)NC1CCCC1,inactive: 110%
6,COc1ccc(CCNC(=O)CSC2=Nc3ccccc3C3=NC(CCC(=O)NCc4ccccc4)C(=O)N23)cc1OC (stereo not drawn),inactive: 94%
7,Cc1noc2ncnc(N3CCCC(C(=O)NC(C)C)C3)c12 (stereo not drawn),inactive: 78%
8,Cc1ccc(Cl)cc1N1CCN(CCCNc2ncnc3onc(-c4ccc(Cl)cc4)c23)CC1,inactive: 92%
9,CCOc1ccccc1CNC(=O)c1ccc2c(c1)sc1nc(-c3ccccc3)cn12,inactive: 78%
10,Cc1cccc(CCNC(=O)C2CCN(c3ncnc4c3nc3n4CCCCC3)CC2)c1,inactive: 112%
11,COc1ccc(NC(=O)c2ccc(NC(=O)CCS(=O)(=O)c3cccs3)cc2)cc1OC,inactive: 74%
12,CCOC(=O)c1cc(-c2ccccc2)n(CCC(=O)Nc2cc(OCC)ccc2OCC)c1C,inactive: 45%
13,Cc1cccc2cc(CN(CC3CCCO3)C(=O)CC(C)(C)C)c3nnnn3c12 (stereo not drawn),inactive: 120%
14,CCCCCn1c(CCCNC(=O)c2cccc(C)c2)nc2ccccc21,inactive: 50%
15,Cc1c(C)n(Cc2ccccc2)c2ccc(C(=O)NCc3ccc(OC(C)C)cc3)cc12,inactive: 115%
16,CCN(CC)CCCNC(=O)C1CCN(S(C)(=O)=O)CC1,inactive: 100%
17,O=C(CCCCn1c(=O)c2ccccc2n(CC(=O)Nc2ccccc2)c1=O)NCc1ccccc1Cl,inactive: 94%
18,CCc1nnc2c3ccccc3nc(Nc3ccccc3OC)n12,inactive: 72%
19,Cc1cccc(N2CCN(S(=O)(=O)c3ccc4oc(=O)c5ncn(C)c5c4c3)CC2)c1C,inactive: 81%
20,CCOC(=O)c1sc(NC(=O)C(C)Sc2nc(-c3ccccc3)cc(C(F)(F)F)n2)c(C(=O)OC)c1C (stereo not drawn),inactive: 139%
21,Cc1oc(-c2ccc(C(=O)Nc3cccc(C(F)(F)F)c3)cc2)nc1CSc1ccccc1,inactive: 57%
22,COc1ccc(Nc2nc3ccc(Cl)cc3n3nnnc23)cc1OC,inactive: 109%

row,Structure (SMILES),survival
1,COc1cccc(-c2nc3cc(C)ccc3o2)c1,inactive: 116%
2,COc1ccc(-c2nc3scc(CCNS(=O)(=O)c4ccc(F)c(C(F)(F)F)c4)n3n2)cc1OC,inactive: 79%
3,CCCC(=O)C1=C(c2ccc(C)cc2)N(C(=O)CCC)n2cnnc2S1,inactive: 134%
4,O=C(Oc1ccccc1Cl)c1cc(-c2ccc3c(c2)OCCO3)on1,active: -7%
5,CCN1CCN(c2cc(C)c3cc(NC(=O)c4cccc(Cl)c4)ccc3n2)CC1,inactive: 57%
6,c1ccc(-c2cc3ccsc3s2)cc1,inactive: 111%
7,Cc1ccc(NC(=O)c2cnc(N3CCCCC3)c3ccccc23)cc1Cl,inactive: 82%
8,Cc1ccc(OCCn2cc(C(=O)c3ccco3)c3ccccc32)cc1C,inactive: 24%
9,COC(=O)c1scc(-c2ccc(C)cc2)c1S(=O)(=O)Nc1cccc(Cl)c1C,inactive: 73%
10,Cc1n[nH]c(C)c1CCc1nc2c3ccccc3nc(SCC(=O)Nc3ccc(F)cc3)n2n1,inactive: 115%
11,Cc1ccc(CNC(=O)Cn2cc(S(=O)(=O)Cc3cccc(Cl)c3)c3ccccc32)cc1,inactive: 77%
12,COc1ccc(-c2nc3nc(C)cc(Nc4cccc(C(F)(F)F)c4)n3n2)cc1,inactive: 93%
13,COc1ccc(NC(=O)COc2ccc(S(=O)(=O)NC3CCCCC3)cc2)c(OC)c1,inactive: 66%
14,O=C(CCCc1nc(-c2ccccc2)no1)Nc1cc(C(F)(F)F)cc(C(F)(F)F)c1,inactive: 27%
15,O=C(Nc1nnc(S(=O)(=O)N2CCCCC2)s1)c1ccc(F)cc1,inactive: 90%
16,Cc1cc(C)c(Cn2c3ccccc3c3cnn(CC(=O)NCc4ccc(Cl)cc4)c(=O)c32)c(C)c1,inactive: 133%
17,O=C1CN(c2ccccc2)C(=Nc2ccccc2)S1,inactive: 101%
18,Cc1noc(Cn2c(=O)c3ccccc3n(CC(=O)Nc3ccc(F)cc3F)c2=O)n1,inactive: 69%
19,NC(=O)c1oc2ccccc2c1NC(=O)c1ccccc1,inactive: 99%
20,CCOc1ccc(NC(=O)c2cc(S(=O)(=O)N3CCCC3)c[nH]2)cc1,inactive: 113%
21,CC1=C(C(=O)Nc2ccccc2C)C(c2ccco2)n2ncnc2N1 (stereo not drawn),inactive: 78%
22,Cc1sc(-n2cccc2)c(C(C)NC(=O)Nc2ccccc2Cl)c1C (stereo not drawn),inactive: 77%

row,Structure (SMILES),survival
1,COC(=O)c1ccccc1NC(=O)c1cc2c(s1)-c1ccccc1OC2,inactive: 53%
2,O=C(CN(c1cc(C(F)(F)F)ccc1Cl)S(=O)(=O)c1ccccc1)NCCc1ccccc1,inactive: 74%
3,COc1ccc(-c2c(C#N)c(SCC(=O)Nc3ccc(Br)cc3)nc(C)c2C(=O)Nc2ccccc2)cc1,inactive: 105%
4,CCOc1ccc(CCNC(=O)c2ccc3c(c2)N(Cc2ccccc2)C(=O)c2ccccc2S3=O)cc1OCC (stereo not drawn),inactive: 83%
5,O=C(CSc1nc(-c2ccccc2)c2ccccc2n1)Nc1ccc(F)cc1,inactive: 94%
6,Cc1cc(C)c(S(=O)(=O)NCCc2cc3ccc(C)cc3[nH]c2=O)c(C)c1,inactive: 62%
7,CC1=C(C(=O)N2CCCCC2)C(c2cccc(Cl)c2)n2c(nc3ccccc32)N1 (stereo not drawn),inactive: 73%
8,COc1ccc(NC(=O)CN2C(=O)CCc3cc(S(=O)(=O)N4CCOCC4)ccc32)c(OC)c1,inactive: 66%
9,CCOc1ccccc1NC(=O)Cn1c(=O)n(-c2ccccc2)c(=O)c2c1c1cc(C)ccc1n2C,inactive: 84%
10,COc1ccc(-c2cn3c(n2)sc2cc(C(=O)NCCCN4CCCCC4)ccc23)cc1,inactive: 81%
11,O=C(c1cc2nc(-c3ccccc3)cc(C(F)(F)F)n2n1)N1CCCC1,inactive: 111%
12,CCN(C(=O)CSc1nnc(-c2cc3occc3n2C)n1-c1ccccc1C)c1cccc(C)c1,inactive: 69%
13,CCc1ccc(CNC(=O)CSc2cc(=O)n(CC)c3ccccc23)cc1,inactive: 79%
14,CCNC(=O)c1c(C)oc2ncn(C)c(=O)c12,inactive: 119%
15,CCN(CC)C(=O)c1cnn(-c2ccc(F)cc2)c1-n1cccc1,inactive: 45%
16,COc1ccc(N2CCN(C(=O)c3ccc4c(=O)n(CCc5ccc(OC)c(OC)c5)c(=O)[nH]c4c3)CC2)cc1,inactive: 126%
17,CCc1nn(CC(=O)N(CC)Cc2ccccc2)c(=O)c2cc3occc3n12,inactive: 70%
18,COc1ccc(-c2nc(N)n(C(=O)c3ccco3)n2)cc1,inactive: 111%
19,Cc1nn(CCCC(=O)Nc2cc(C(F)(F)F)ccc2Cl)c(=O)c2c1sc1ccccc12,inactive: 91%
20,CCOc1ccc(-n2c(=O)c3c4c(sc3n(Cc3cccc(C)c3)c2=O)CCCC4)cc1,inactive: 68%
21,Clc1ccc2nc(Nc3ccccc3Cl)nc(-c3ccccc3)c2c1,inactive: 76%
22,CCc1ccc(NS(=O)(=O)c2ccc3[nH]cc(C(=O)NCc4ccc(C)cc4)c(=O)c3c2)cc1,inactive: 67%

row,Structure (SMILES),survival
1,CCOCCCNC(=O)C1CCN(c2cc(C)nc3c(-c4ccc(Cl)cc4)c(C)nn23)CC1,inactive: 85%
2,CCc1ccc(NCc2cc3cc4c(cc3n(CC(=O)Nc3ccccc3Cl)c2=O)OCO4)cc1,inactive: 89%
3,Cc1ccc(-c2cn3c(n2)sc2cc(C(=O)NC4CCCc5ccccc54)ccc23)cc1 (stereo not drawn),inactive: 101%
4,CC(C)(C)c1ccc(CN(Cc2ccco2)Cc2nnnn2C2CCCCC2)cc1,inactive: 113%
5,C/C(=N\NC(N)=O)C1CC(Cc2ccccc2)C(=O)O1 (stereo not drawn),inactive: 101%
6,CCOc1ccccc1NC(=O)Nc1cc(C(=O)NCc2ccc(C)cc2)ccc1N1CCCC1,inactive: 92%
7,COc1ccc(OC)c(NC(=O)c2c(NCc3ccc(OC)c(OC)c3)sc3c2CCC3)c1,inactive: 75%
8,O=C(Nc1ccc(Br)cc1F)C(NS(=O)(=O)c1cccc2nsnc12)c1ccccc1 (stereo not drawn),inactive: 81%
9,Cc1ccc(NC(=O)c2cc3c(-c4ccccc4)nn(-c4ccccc4)c3s2)cc1,inactive: 66%
10,CCn1c(SCc2ccc(C)cc2)nnc1-c1ccc(S(=O)(=O)N2CCOCC2)cc1,inactive: 104%
11,COc1ccc(CNC(=O)c2cc3c(-c4ccccc4F)nn(C)c3s2)cc1,inactive: 64%
12,O=C(C1CCCCC1)N1CCC(n2nnc3ccccc32)CC1,inactive: 98%
13,COc1ccc(NC(=O)Cn2c(=O)n(CC(=O)NCCc3ccccc3)c(=O)c3ccccc32)cc1,inactive: 105%
14,Cc1c(C(=O)NCc2ccccc2)sc2nc[nH]c(=O)c12,inactive: 78%
15,Cc1ccc(CCNc2nc3c(S(=O)(=O)c4ccccc4)nnn3c3ccsc23)cc1,inactive: 73%
16,COc1cc(-c2noc(-c3ccc(N(C)C)c([N+](=O)[O-])c3)n2)cc(OC)c1OC,inactive: 84%
17,O=C(Nc1cc(-c2nc3ccccc3o2)ccc1Cl)c1ccc(Br)o1,inactive: 65%
18,COc1cccc(Cc2nc3ccccc3nc2SCC(=O)N2CCN(c3ccccc3)CC2)c1,inactive: 101%
19,O=C(Cn1c(-c2cccs2)cc2cc(F)ccc21)N1CCN(c2cccc(Cl)c2)CC1,inactive: 65%
20,CCC(=O)N(Cc1nc2ccccc2c(=O)[nH]1)Cc1ccccc1OC,inactive: 94%
21,Cc1ccccc1Cn1c2ccccc2c2cnn(CC(=O)NCCCc3ccccc3)c(=O)c21,inactive: 87%
22,N#Cc1ccc(CSCC(=O)NN=C2CCCC2)cc1,inactive: 103%
